# Reference: the supplement of paper PMC8728848
# The list shows a part of the results.
# How the values were obtained:
# Experiment in all cases: glycan array binding signal (z-score within array); higher = stronger binding
# Details in all cases: glycan notation: IUPAC condensed, linker removed
# [1] = target: Fuc(a1-2)Gal(b1-4)[Fuc(a1-3)]GlcNAc
# Outline: (§1)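 Arrays were curated from the Consortium for Functional Glycomics database, 3228 in total, and kept only where the protein sequence was available. Binding is expressed as a within-array Z-score. This score was averaged across arrays of the same protein sequence at different concentrations or buffers and across linkers, and negative values can be read as non-binding.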
# [2] = target: Fuc(a1-2)Gal(b1-4)[Fuc(a1-3)]GlcNAc(b1-2)Man(a1-3)[Fuc(a1-2)Gal(b1-4)[Fuc(a1-3)]GlcNAc(b1-2)Man(a1-6)]Man(b1-4)GlcNAc(b1-4)GlcNAc
# Outline: as §1
# [3] = target: Fuc(a1-2)Gal(b1-4)[Fuc(a1-3)]GlcNAc(b1-2)[Fuc(a1-2)Gal(b1-4)[Fuc(a1-3)]GlcNAc(b1-4)]Man(a1-3)[Fuc(a1-2)Gal(b1-4)[Fuc(a1-3)]GlcNAc(b1-2)Man(a1-6)]Man(b1-4)GlcNAc(b1-4)GlcNAc
# Outline: as §1
# [4] = target: Fuc(a1-2)Gal(b1-4)[Fuc(a1-3)]GlcNAc(b1-3)Gal(b1-4)[Fuc(a1-3)]GlcNAc
# Outline: as §1
# [5] = target: Fuc(a1-2)Gal(b1-4)[Fuc(a1-3)]GlcNAc(b1-3)Gal(b1-4)[Fuc(a1-3)]GlcNAc(b1-3)Gal(b1-4)[Fuc(a1-3)]GlcNAc
# Outline: as §1
# [6] = target: Fuc(a1-2)Gal(b1-4)[Fuc(a1-3)]GlcNAc(b1-3)GalNAc
# Outline: as §1
# Fuc(a1-2)Gal6S(b1-4)Glc = target: Fuc(a1-2)Gal6S(b1-4)Glc
# Outline: as §1
# [7] = target: Fuc(a1-2)Gal6S(b1-4)Glc6S
# Outline: as §1
# [8] = target: Fuc(a1-2)Gal6S(b1-4)GlcNAc
# Outline: as §1
# Fuc(a1-2)[Gal(a1-3)]Gal = target: Fuc(a1-2)[Gal(a1-3)]Gal
# Outline: as §1
# [9] = target: Fuc(a1-2)[Gal(a1-3)]Gal(b1-3)GalNAc
# Outline: as §1
# [10] = target: Fuc(a1-2)[Gal(a1-3)]Gal(b1-3)GlcNAc
# Outline: as §1
# [11] = target: Fuc(a1-2)[Gal(a1-3)]Gal(b1-3)GlcNAc(b1-2)Man(a1-3)[Fuc(a1-2)[Gal(a1-3)]Gal(b1-3)GlcNAc(b1-2)Man(a1-6)]Man(b1-4)GlcNAc(b1-4)GlcNAc
# Outline: as §1
# [12] = target: Fuc(a1-2)[Gal(a1-3)]Gal(b1-3)GlcNAc(b1-2)Man(a1-3)[Fuc(a1-2)[Gal(a1-3)]Gal(b1-3)GlcNAc(b1-2)Man(a1-6)]Man(b1-4)GlcNAc(b1-4)[Fuc(a1-6)]GlcNAc
# Outline: as §1
# [13] = target: Fuc(a1-2)[Gal(a1-3)]Gal(b1-3)GlcNAc(b1-3)GalNAc
# Outline: as §1
# [14] = target: Fuc(a1-2)[Gal(a1-3)]Gal(b1-4)Glc
# Outline: as §1
# [15] = target: Fuc(a1-2)[Gal(a1-3)]Gal(b1-4)GlcNAc
# Outline: as §1
# [16] = target: Fuc(a1-2)[Gal(a1-3)]Gal(b1-4)GlcNAc(b1-2)Man(a1-3)[Fuc(a1-2)[Gal(a1-3)]Gal(b1-4)GlcNAc(b1-2)Man(a1-6)]Man(b1-4)GlcNAc(b1-4)GlcNAc
# Outline: as §1
# [17] = target: Fuc(a1-2)[Gal(a1-3)]Gal(b1-4)GlcNAc(b1-2)Man(a1-3)[Fuc(a1-2)[Gal(a1-3)]Gal(b1-4)GlcNAc(b1-2)Man(a1-6)]Man(b1-4)GlcNAc(b1-4)[Fuc(a1-6)]GlcNAc
# Outline: as §1
# [18] = target: Fuc(a1-2)[Gal(a1-3)]Gal(b1-4)GlcNAc(b1-3)GalNAc
# Outline: as §1
# [19] = target: Fuc(a1-2)[Gal(a1-3)]Gal(b1-4)[Fuc(a1-3)]Glc
# Outline: as §1
# [20] = target: Fuc(a1-2)[Gal(a1-3)]Gal(b1-4)[Fuc(a1-3)]GlcNAc
# Outline: as §1
# [21] = target: Fuc(a1-2)[Gal(a1-3)]Gal(b1-4)[Fuc(a1-3)]GlcNAc(b1-3)GalNAc
# Outline: as §1
# [22] = target: Fuc(a1-2)[Gal(a1-4)]Gal(b1-4)GlcNAc
# Outline: as §1
# [23] = target: Fuc(a1-2)[GalNAc(a1-3)]Gal
# Outline: as §1
# [24] = target: Fuc(a1-2)[GalNAc(a1-3)]Gal(b1-3)GalNAc(a1-3)[Fuc(a1-2)]Gal(b1-4)GlcNAc
# Outline: as §1
# [25] = target: Fuc(a1-2)[GalNAc(a1-3)]Gal(b1-3)GlcNAc
# Outline: as §1
# [26] = target: Fuc(a1-2)[GalNAc(a1-3)]Gal(b1-3)GlcNAc(b1-2)Man(a1-3)[Fuc(a1-2)[GalNAc(a1-3)]Gal(b1-3)GlcNAc(b1-2)Man(a1-6)]Man(b1-4)GlcNAc(b1-4)GlcNAc
# Outline: as §1
# [27] = target: Fuc(a1-2)[GalNAc(a1-3)]Gal(b1-3)GlcNAc(b1-2)Man(a1-3)[Fuc(a1-2)[GalNAc(a1-3)]Gal(b1-3)GlcNAc(b1-2)Man(a1-6)]Man(b1-4)GlcNAc(b1-4)[Fuc(a1-6)]GlcNAc
# Outline: as §1
# [28] = target: Fuc(a1-2)[GalNAc(a1-3)]Gal(b1-3)GlcNAc(b1-3)GalNAc
# Outline: as §1
binder,measurement,setting,value
"UEA-I (Ulex europaeus), P22972 (protein) SDDLSFKFKNFSQNGKDLSFQGDASVIETGVLQLNKVGNNLPDETGGIARYIAPIHIWNCNTGEVASFITSFSFFMETSANPKAATDGLTFFLAPPDSPLRRAGGYFGLFEDTKDNDSSYQTVAVEFDTIGSPVNFDDPGFPHIGIDVNRVKSINAERWNKRYGLNNVANVEIIYEASSKTLTASLTYPSDQTSISVTSIVDLKEILPEWVSVGFSGGTYIGRQATHEVLNWYFTSNLIN",glycan array binding signal (z-score),[1],2.53
same,glycan array binding signal (z-score),[2],-0.163
same,glycan array binding signal (z-score),[3],-0.148
same,glycan array binding signal (z-score),[4],-0.127
same,glycan array binding signal (z-score),[5],-0.135
same,glycan array binding signal (z-score),[6],-0.157
same,glycan array binding signal (z-score),Fuc(a1-2)Gal6S(b1-4)Glc,4.06
same,glycan array binding signal (z-score),[7],8.02
same,glycan array binding signal (z-score),[8],3.85
same,glycan array binding signal (z-score),Fuc(a1-2)[Gal(a1-3)]Gal,-0.182
same,glycan array binding signal (z-score),[9],-0.182
same,glycan array binding signal (z-score),[10],-0.178
same,glycan array binding signal (z-score),[11],-0.181
same,glycan array binding signal (z-score),[12],-0.147
same,glycan array binding signal (z-score),[13],-0.183
same,glycan array binding signal (z-score),[14],-0.182
same,glycan array binding signal (z-score),[15],-0.182
same,glycan array binding signal (z-score),[16],-0.187
same,glycan array binding signal (z-score),[17],-0.167
same,glycan array binding signal (z-score),[18],-0.178
same,glycan array binding signal (z-score),[19],-0.176
same,glycan array binding signal (z-score),[20],-0.173
same,glycan array binding signal (z-score),[21],-0.182
same,glycan array binding signal (z-score),[22],5.33
same,glycan array binding signal (z-score),[23],-0.182
same,glycan array binding signal (z-score),[24],-0.187
same,glycan array binding signal (z-score),[25],-0.178
same,glycan array binding signal (z-score),[26],-0.185
same,glycan array binding signal (z-score),[27],-0.148
same,glycan array binding signal (z-score),[28],-0.158
